Experimental data taken from the supplement of paper PMC4967469.
pIC50: −log10 of the molar value. Lines with a small IC50 respond at low doses; fits outside the tested doses are given as limits. For AUC the same curve is integrated over the 256-fold range of doses and scaled to a fraction; the more sensitive the line, the further below 1. For some of these results: A top dose marked as inferred is not printed in the source and was worked back from the curve model. For some of these results: Where an entry number is given, a second screen of the drug exists; the two often differ.

Columns and labels:
Experiment in all cases: Viability of human cancer cell lines after 72 h of drug (GDSC screen)
[1] = compound: O=C(NC1CC1)c1cccc(-c2ccc3c(NC(=O)C4CC4)n[nH]c3c2)c1 [XMD13-2]; settings: top dose 10.24 µM; top dose inferred
Method: (§1)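 Human cancer cell lines in 384-well plates, medium with 10% serum, drug for 72 h over a 256-fold dose range (nine 2-fold or five 4-fold steps up to the top dose). Adherent lines were fixed and stained with the nucleic acid dye Syto60, suspension lines read with resazurin; signal relative to control wells, capped at 0 and 100%. One two-parameter sigmoid per drug and line, fitted in a mixed model over all curves with the slope shared within a line.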

[2] = compound: CC[C@]1(O)C[C@@H]2CN(CCc3c([nH]c4ccccc34)[C@@](C(=O)OC)(c3cc4c(cc3OC)N(C)[C@H]3[C@@](O)(C(=O)OC)[C@H](OC(C)=O)[C@]5(CC)C=CCN6CC[C@]43[C@@H]65)C2)C1 [Vinblastine]; settings: top dose 0.1 µM; top dose inferred
Method: as §1

[3] = compound: CN(C)C/C=C/C(=O)Nc1cc2c(Nc3ccc(F)c(Cl)c3)ncnc2cc1O[C@H]1CCOC1 [Afatinib]
Method: as §1

[4] = compound: CN(c1ncccc1CNc1nc(Nc2ccc3c(c2)CC(=O)N3)ncc1C(F)(F)F)S(C)(=O)=O [PF-562271]; settings: top dose 2.56 µM; top dose inferred
Method: as §1

[5] = compound: CC1(C)CC(=O)c2c(C(F)(F)F)nn(-c3ccc(C(N)=O)c(N[C@H]4CC[C@H](O)CC4)c3)c2C1 [SNX-2112]; settings: top dose 2.56 µM
Method: as §1

[6] = top dose 0.5 µM, screen: GDSC drug entry 1032
[7] = top dose 10 µM, screen: GDSC drug entry 1377, top dose inferred

Cell Line	AUC [1]	pIC50 [1]	AUC [2]	pIC50 [2]	AUC [3, 6]	pIC50 [3, 6]	AUC [3, 7]	pIC50 [3, 7]	AUC [4]	pIC50 [4]	AUC [5]	pIC50 [5]
D-283MED (medulloblastoma, adherent)	0.991	< 4.99	0.703	7.66	0.985	< 6.30	0.989	< 5.00	0.964	< 5.59	0.991	< 5.59
D-336MG (glioma, adherent)	0.857	< 4.99	0.538	8.09	0.968	< 6.30	0.926	< 5.00	0.79	5.82	0.499	6.80
D-392MG (glioma, adherent)	0.906	< 4.99	0.631	7.79	0.977	< 6.30	0.959	< 5.00	0.962	< 5.59	0.679	6.22
D-502MG (glioma, adherent)	0.879	< 4.99	0.674	7.60	0.942	< 6.30	0.833	< 5.00	0.976	< 5.59	0.91	< 5.59
D-542MG (glioma, adherent)	0.972	< 4.99	0.76	7.37	0.984	< 6.30	0.98	< 5.00	0.976	< 5.59	0.804	5.79
DAN-G (pancreas, adherent)	0.982	< 4.99	0.925	< 7.00	0.976	< 6.30	–	–	0.982	< 5.59	0.714	6.23
DB (B-cell lymphoma, suspension)	0.938	< 4.99	0.335	8.69	0.928	< 6.30	0.845	5.06	0.962	< 5.59	0.475	6.87
DBTRG-05MG (glioma, adherent)	0.897	< 4.99	0.545	8.07	0.975	< 6.30	0.976	< 5.00	0.866	< 5.59	0.799	5.83
DG-75 (Burkitt lymphoma, suspension)	0.934	< 4.99	0.464	8.30	0.97	< 6.30	0.925	< 5.00	0.987	< 5.59	0.922	< 5.59
DJM-1 (skin, adherent)	0.962	< 4.99	0.602	7.92	0.961	< 6.30	0.932	< 5.00	0.964	< 5.59	0.436	6.97
DK-MG (glioma, adherent)	0.949	< 4.99	0.661	7.66	0.963	< 6.30	0.947	< 5.00	0.948	< 5.59	0.704	6.09
DMS-53 (small cell lung carcinoma, adherent)	0.987	< 4.99	0.986	< 7.00	0.988	< 6.30	0.974	< 5.00	0.978	< 5.59	0.977	< 5.59
DMS-79 (small cell lung carcinoma, suspension)	0.974	< 4.99	0.983	< 7.00	0.987	< 6.30	0.983	< 5.00	0.987	< 5.59	0.864	< 5.59
DMS-273 (small cell lung carcinoma, adherent)	0.745	5.47	0.444	8.36	0.972	< 6.30	–	–	0.85	5.68	0.562	6.62
DND-41 (T-cell leukaemia, suspension)	0.711	5.64	0.702	7.67	0.983	< 6.30	0.951	< 5.00	0.918	< 5.59	0.173	7.71
DOK (head and neck, adherent)	0.938	< 4.99	0.497	8.21	0.453	7.66	0.448	6.38	0.9	< 5.59	0.724	6.01
DSH1 (bladder, adherent)	0.986	< 4.99	0.698	7.66	0.536	7.41	0.562	6.04	0.962	< 5.59	0.262	7.46
DU-4475 (breast, suspension)	0.914	< 4.99	0.869	7.19	0.992	< 6.30	0.987	< 5.00	0.899	5.66	0.207	7.56
Daoy (medulloblastoma, adherent)	0.731	5.57	0.415	8.43	0.984	< 6.30	0.988	< 5.00	0.933	< 5.59	0.326	7.26
Daudi (Burkitt lymphoma, suspension)	0.7	5.67	0.962	< 7.00	0.99	< 6.30	0.986	< 5.00	0.968	< 5.59	0.258	7.44
Detroit562 (head and neck, adherent)	0.976	< 4.99	0.502	8.20	0.923	< 6.30	0.978	< 5.00	0.816	–	0.928	< 5.59
EB2 (Burkitt lymphoma, suspension)	0.773	5.44	0.977	< 7.00	0.99	< 6.30	0.989	< 5.00	0.967	< 5.59	0.341	7.22

Cell Line	AUC [1]	pIC50 [1]	AUC [2]	pIC50 [2]	AUC [3, 6]	pIC50 [3, 6]	AUC [3, 7]	pIC50 [3, 7]	AUC [4]	pIC50 [4]	AUC [5]	pIC50 [5]
EB-3 (Burkitt lymphoma, suspension)	0.944	< 4.99	0.968	< 7.00	0.984	< 6.30	0.96	< 5.00	0.984	< 5.59	0.599	6.50
EBC-1 (lung squamous cell carcinoma, adherent)	0.846	5.05	0.577	7.98	0.983	< 6.30	0.897	< 5.00	0.92	< 5.59	0.832	5.71
EC-GI-10 (oesophagus, adherent)	0.989	< 4.99	0.393	8.50	0.562	7.34	0.292	6.79	0.985	< 5.59	0.879	< 5.59
ECC10 (stomach, suspension)	0.902	< 4.99	0.641	7.81	0.975	< 6.30	0.973	< 5.00	0.847	5.70	0.85	5.68
EFM-192A (breast, adherent)	0.98	< 4.99	0.74	7.48	0.518	7.45	0.654	5.75	0.694	6.22	0.859	5.60
EFO-27 (ovary, adherent)	0.954	< 4.99	0.541	8.08	0.591	7.23	0.929	< 5.00	0.846	< 5.59	0.638	6.37
EGI-1 (biliary tract, adherent)	0.963	< 4.99	0.616	7.84	0.975	< 6.30	0.902	< 5.00	0.909	< 5.59	0.721	6.08
EJM (lymphoid neoplasm, semi-adherent)	0.884	5.10	0.516	8.16	0.991	< 6.30	0.989	< 5.00	0.981	< 5.59	0.397	7.06
EKVX (lung adenocarcinoma, adherent)	0.96	< 4.99	0.887	< 7.00	0.743	6.44	0.651	5.58	0.937	< 5.59	0.859	< 5.59
EM-2 (chronic myeloid leukaemia, suspension)	0.865	< 4.99	0.43	8.41	0.973	< 6.30	0.946	< 5.00	0.917	< 5.59	0.339	7.27
EN (endometrium, adherent)	0.869	< 4.99	0.645	7.76	0.984	< 6.30	0.981	< 5.00	0.966	< 5.59	0.796	5.80
ES1 (Ewing sarcoma, adherent)	0.651	5.78	0.509	8.18	0.984	< 6.30	0.949	< 5.00	0.915	< 5.59	0.278	7.42
ES4 (Ewing sarcoma, adherent)	0.868	< 4.99	0.619	7.85	0.826	6.44	0.763	5.39	0.915	< 5.59	0.563	6.61
ES5 (Ewing sarcoma, adherent)	0.703	5.58	0.464	8.31	0.934	< 6.30	0.96	< 5.00	0.91	< 5.59	0.351	7.24
ES6 (Ewing sarcoma, adherent)	0.943	< 4.99	0.827	7.09	0.982	< 6.30	0.953	< 5.00	0.926	< 5.59	0.53	6.71
ES7 (Ewing sarcoma, adherent)	0.639	5.80	0.47	8.29	0.968	< 6.30	0.849	5.11	0.984	< 5.59	0.208	7.67
ES8 (Ewing sarcoma, adherent)	0.677	5.72	0.363	8.57	0.969	< 6.30	0.971	< 5.00	0.85	5.76	0.291	7.36
ES-2 (ovary, adherent)	0.984	< 4.99	0.717	7.63	0.989	< 6.30	0.99	< 5.00	0.991	< 5.59	0.44	6.95
ESS-1 (endometrium, adherent)	0.938	< 4.99	0.407	8.45	0.99	< 6.30	0.989	< 5.00	0.931	< 5.59	0.984	< 5.59
ETK-1 (biliary tract, adherent)	0.883	< 4.99	0.504	8.19	0.858	6.30	0.792	5.28	0.85	5.63	0.364	7.19
EVSA-T (breast, adherent)	0.966	< 4.99	0.677	7.74	0.977	< 6.30	0.991	< 5.00	0.988	< 5.59	0.769	6.08
EW-1 (Ewing sarcoma, semi-adherent)	0.822	5.27	0.423	8.41	0.989	< 6.30	0.987	< 5.00	0.923	< 5.59	0.257	7.46
